PubChem BioAssay AID686978 (National Center for Advancing Translational Sciences (NCATS), 2013)
About 64,000 (15%) of roughly 420,000 compounds were called active. Inconclusive results, whose numbers are uncertain, are shown with a selection of clear calls. The call rests on the fitted dose curve; in most records, active means well fitted inhibition curve with a large enough effect; inconclusive means small, poorly fitted or top-dose-only effect; inactive means flat fitted curve, though single readings scatter. No potency is given beside an inconclusive call; the fits are too rough.

Experiment: qHTS for Inhibitors of human tyrosyl-DNA phosphodiesterase 1 (TDP1): qHTS in cells in absence of CPT; further: nearly all actives have a fitted effect of over 55% in size
Details: DT40 Tdp1-/- hTDP1 cells, no CPT, ATP luminescence, 48 h; activity change, negative = growth inhibition: at 46.2 µM (top of the series) unless noted
Outline: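 Stably hTDP1-transfected Tdp1-null chicken DT40 cells were treated with library compounds minus camptothecin and grown for at least 48 hr at 37 °C, after which cellular ATP was quantified by luminescence.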
On the % scale 0 is the no-effect control and ±100 the full control effect; potency means the concentration at half of the fitted maximal effect; tags describe the fitted curve by direction and shape.

| Compound | Potency | activity change, negative = growth inhibition |
| --- | --- | --- |
| CCCC(=O)Nc1nc(C)c(-c2csc(Nc3ccc(Cl)cc3)n2)s1 | inconclusive [inhibitor, single point] |  |
| N=C1/C(=C\c2ccc(-c3cc(Cl)cc(Cl)c3)o2)C(=O)N=C2SC=C(c3ccccc3)N12 | inconclusive [inhibitor, partial curve] |  |
| CCOc1ccccc1NC(=O)CCc1ccc(C)o1 |  | inconclusive: -31.8% [inhibitor] |
| CCCc1c(C)[nH]c2ccccc2c1=O | inconclusive [inhibitor, single point] |  |
| COc1ccc(NC(=O)c2cc(C3CCCCN3C(=O)c3ccc(C#N)cc3)on2)c(C)c1 (configuration not stated) | inconclusive [inhibitor, single point] |  |
| N#C/C(=C\C=C\c1ccccc1)c1nc(-c2ccc(Cl)cc2)cs1 | inconclusive [inhibitor, partial curve] |  |
| Nc1cc(S(=O)(=O)Nc2cc(Cl)ccc2Cl)ccc1N1CCOCC1 | inconclusive [inhibitor, single point] |  |
| Cc1cccc(CN2C(=O)c3ccccc3S(=O)(=O)c3ccc(C(=O)NCCCN4CCCC4)cc32)c1 | inconclusive [inhibitor, single point] |  |
| N#CC1(Cc2ccc([N+](=O)[O-])cc2)c2ccccc2C=CN1C(=O)c1ccccc1 (configuration not stated) | active: 14.6 µM |  |
| Cc1cc(C(=O)Nc2ccccc2N2CCOCC2)c2ccccc2n1 | inconclusive [inhibitor, single point] |  |
| O=C(CNC(=O)c1ccccc1F)NCCN1C(=O)S/C(=C\c2ccccc2Cl)C1=O | inconclusive [inhibitor, single point] |  |
| COC(=O)[C@]1(C)CCC[C@@]2(C)C3CC[C@@]4(C)C[C@]3(CCC21)CC(=O)N4 (some centres not stated) | inconclusive [inhibitor, single point] |  |
| COc1ccc(NC(=O)N2CCN(c3ccc([N+](=O)[O-])cc3)CC2)cc1OC | active: 18.4 µM |  |
| CCCc1c(C(=O)Nc2ccc(OC)cc2)cnn1-c1ccccc1 | inconclusive [inhibitor, single point] |  |
| COc1ccc(C2(CNC(=O)/C=C\c3ccco3)CCCC2)cc1OC | active: 29.1 µM |  |
| Cc1cc(NC(=O)/C=C/C(=O)N(CC(=O)NC2CCCC2)c2ccc(F)cc2)no1 | inconclusive [inhibitor, single point] |  |
| CCn1c2ccccc2c2cc(N=C3SC(CC(=O)Nc4ccccc4OC)C(=O)N3CCOC)ccc21 (configuration not stated) | inconclusive [inhibitor, partial curve, poor fit] |  |
| CCOC(=O)c1cc2c(C)n(-c3ccc(OCC)cc3)c(C)c2cc(C(=O)OCC)c1=O | active: 16.4 µM |  |
| CSc1ccc(N=Nc2c(C)[nH]n(C)c2=O)cc1 | inconclusive [inhibitor, single point] |  |
| O=C(Nc1cnccn1)Nc1ccccc1F | inactive |  |
| O=C(c1cc(=O)[nH]c2ccccc12)N1CCN(Cc2ccc3c(c2)OCO3)CC1 | inactive |  |
| NS(=O)(=O)c1ccc(NC(=O)COC(=O)c2ccc3c(c2)OCCO3)cc1 |  | inconclusive: -33.8% [inhibitor] |
| COc1ccc(CN2CCN(S(=O)(=O)c3ccccc3)CC2)cc1Br | inconclusive [inhibitor, single point] |  |

| Compound | Potency | activity change, negative = growth inhibition |
| --- | --- | --- |
| Cc1nc(Nc2ccc(Cl)cc2Cl)sc1C(=O)Nc1ccccc1 | active: 18.4 µM |  |
| CC(C)Oc1ccc(CC2CCC(=O)N(C)C2=O)cc1 (configuration not stated) | inactive |  |
| CCN(c1cccc(C)c1)S(=O)(=O)c1ccc2[nH]cc(C(=O)NCCCOC)c(=O)c2c1 | inconclusive [inhibitor, single point] |  |
| CNC(=O)C1C(=S)NC(N)=C(C#N)C1c1ccccc1 (configuration not stated) | active: 6.51 µM |  |
| Cc1ccccc1NC(=O)CNc1ccc(Cl)c(C(F)(F)F)c1 | inconclusive [inhibitor, single point] |  |
| O=C(COC(=O)CNS(=O)(=O)c1ccc(F)c(F)c1F)NC1CCCC1 | inactive |  |
| N=c1n(CCN2CCCCC2)c2ccccc2n1CC(=O)c1ccc(Cl)c(Cl)c1 | inconclusive [inhibitor, single point] |  |
| O=C(O)C1C2C=CC(C2)C1C(=O)NCc1cccs1 (configuration not stated) | inactive |  |
| COc1ccc(CC(=O)NCc2cccc(Cl)c2)cc1S(=O)(=O)N1CCOCC1 | inconclusive [inhibitor, single point] |  |
| COc1ccc(-n2c(O)c(/C=N/NS(=O)(=O)c3ccc(C)c([N+](=O)[O-])c3)c3ccccc3c2=O)cc1OC | inconclusive [inhibitor, single point] |  |
| COC(=O)CSC1=C(C#N)C(c2ccc(F)cc2)CC(=O)N1 (configuration not stated) |  | inconclusive: -30.5% [inhibitor] |
| COc1ccccc1N1CCN(C(=O)c2ccc(CN3CCc4ccccc4C3)cc2)CC1 | inconclusive [inhibitor, single point] |  |
| COC(=O)c1c(NC(=O)COC(=O)c2ccc(NC(=O)CC#N)cc2)sc2c1CCCCC2 | inconclusive [inhibitor, single point] |  |
| CCOc1cccc(-c2c(C(=O)N/N=C/c3ccc(Br)cc3)nnn2-c2nonc2N)c1 | inconclusive [inhibitor, partial curve] |  |
| O=S1(=O)CCOC[C@H](Cc2ccccc2)N1Cc1ccccc1Br | inconclusive [inhibitor, single point] |  |
| O=c1c2ccccc2nc2sc3ccccc3n12 | active: 13 µM |  |
| CCOC(=O)c1c(C)[nH]c(C(=O)CN(C)CC(=O)Nc2ccccc2C(F)(F)F)c1C | inconclusive [inhibitor, single point] |  |
| COc1ccc(N(C)C(=O)C2CCN(S(=O)(=O)c3cccc4nonc34)CC2)c(OC)c1 | inconclusive [inhibitor, partial curve] |  |
| COc1ccc(NC(C)c2cc(Cl)ccc2O)cc1 (configuration not stated) | inconclusive [inhibitor, single point] |  |
| O=C(Nc1ccc2nc(-c3cccnc3)[nH]c2c1)C1CCCCC1 | active: 14.6 µM |  |
| COc1ccc(C2CC(c3ccccc3)=NN2C(=O)COC(=O)COc2ccccc2)cc1 (configuration not stated) | inconclusive [inhibitor, single point] |  |
| C=CCn1c(SCC(=O)Nc2nnc(C)s2)nnc1-c1cccnc1 | inactive |  |
| Cc1nnc(C(C)C)n1C1C[C@H]2CC[C@@H](C1)N2CC[C@H](NC(=O)C1CCC(F)(F)CC1)c1ccccc1 (some centres not stated) | inactive |  |

| Compound | Potency | activity change, negative = growth inhibition |
| --- | --- | --- |
| COC(=O)c1ccc(Oc2c(Cl)cccc2[N+](=O)[O-])cc1 | inactive |  |
| CCOC(=O)c1cnc2c(C)c(Cl)ccc2c1NCCc1ccccc1 | inactive |  |
| COc1cc(C(=O)C(=O)N2CCN(c3ccccc3)CC2)cc2ccccc12 | inconclusive [inhibitor, single point] |  |
| COCn1ccnc1C(O)(c1ccc(OC)cc1)c1ccc(OC)cc1 | inactive |  |
| CN1CCN(NC(=O)CN2C(=O)S/C(=C\c3c(Cl)cccc3Cl)C2=O)CC1 | inactive |  |
| Cc1ccccc1-c1nc(CS(=O)(=O)CC(=O)NCC(C)c2ccccc2)c(C)o1 (configuration not stated) | active: 16.4 µM |  |
| CCc1ccccc1NC(=O)Cn1c(=O)n(Cc2ccc3c(c2)OCO3)c(=O)c2ccc(C(=O)NC3CCCCC3)cc21 | inconclusive [inhibitor, partial curve, poor fit] |  |
| COc1ccccc1Cc1c(-c2ccc(C#N)cc2)nc2c(C)cc(Br)cn12 | inconclusive [inhibitor, single point] |  |
| Cc1ccc(N(C(=O)c2snc(C(N)=O)c2N)C(C(=O)NC2CCCC2)c2ccco2)cc1 (configuration not stated) | inconclusive [inhibitor, single point] |  |
| COc1ccc2c(c1)C(C)CC(C)(C)N2C(=O)NC1CCCCC1 (configuration not stated) | inconclusive [inhibitor, partial curve, poor fit] |  |
| O=C(CCCCn1c(=O)c2ccccc2n(Cc2ccc(Cl)cc2)c1=O)NCc1ccco1 | active: 16.4 µM |  |
| CCOc1ccc(CCN2C(=O)C(=O)N([C@@H](Cc3ccccc3)CN3CCC[C@H]3CN3C(=O)C(=O)NC[C@@H]3CC(C)C)C[C@@H]2Cc2ccc(O)cc2)cc1 | inconclusive [inhibitor, single point] |  |
| O=C(NC1CCCCCCC1)c1cc(F)c(F)cc1Cl | inactive |  |
| CCN(CC)C(=O)CSC1=N/C(=C/c2ccco2)C(=O)N1c1ccc(OC)c(Cl)c1 | inconclusive [inhibitor, single point] |  |
| NS(=O)(=O)c1cc(C(=O)NCCOc2ccccc2)c(Cl)cc1Cl | inconclusive [inhibitor, partial curve] |  |
| CCCCNC(=O)Nc1c(C(=O)OC)[nH]c2ccc(C)cc12 | inconclusive [inhibitor, single point] |  |
| COc1cccc(/C=C(/C(=O)OCC(=O)NC2CCCC(C)C2C)c2ccccc2)c1 (configuration not stated) | active: 20.6 µM |  |
| CCCCCCC(=O)N(O)C1CC(=O)N(c2ccc(F)cc2)C1=O (configuration not stated) | active: 2.91 µM |  |
| COc1ccc(NC(=O)c2cc(C3CCCCN3C(=O)OCCF)on2)c(C)c1 (configuration not stated) | inconclusive [inhibitor, single point] |  |
| COc1cc(OC)c(NC(=O)C2CCCN(c3ncnc4c3nc3n4CCCCC3)C2)cc1Cl (configuration not stated) | active: 14.6 µM |  |
| COc1ccccc1N1CCN(c2ncc(C(=O)N3CCN(c4cccc(Cl)c4)CC3)c3ccccc23)CC1 | active: 2.59 µM |  |
